# Reference: PubChem BioAssay AID624296 (National Center for Advancing Translational Sciences (NCATS), 2012)
# Among all 350,000 compounds or so, about 9,900 (2.8%) were called active. This list was built around the results that the source calls inconclusive (neither active nor inactive); the mix of calls is not that of the screen. Calls follow the shape of the dose curve; as a rule, active = well fitted activation curve with a large enough effect; inconclusive = small, poorly fitted or top-dose-only effect; inactive = no such curve, though single readings can be large or run the other way. No potency is given beside an inconclusive call; the fits are too rough.
# Assay: A quantitative high throughput screen for small molecules that induce DNA re-replication in MCF 10a normal breast cells. Also: nearly all actives have a fitted effect of over 50% in size. As to activity, positive = re-replication: % of control where 0% means no effect.
# Conditions: MCF 10A DNA re-replication, Hoechst nuclear intensity, 48 h; activity, positive = re-replication: at 46.1 µM (top of the series)
# Potency is read from the fitted curve at half-maximal effect; tags tell the direction and shape of the fitted curve.
SMILES,Potency,"activity, positive = re-replication"
CC1CC1C(=O)Nc1cc(S(=O)(=O)N2CCOCC2)ccc1N1CCCC1 (stereo not drawn),"inconclusive [activator, partial curve, poor fit]",
CCN(CC)CCNC(=O)CCCCCn1c(=O)[nH]c2cc(C(=O)OC)ccc2c1=O,"inconclusive [activator, partial curve, poor fit]",
CC(C)Cc1csc(NC(=O)c2ccc(Cl)cc2)c1C(=O)O,"inconclusive [activator, partial curve, poor fit]",
COCc1cc(C)nc(SCC(=O)Oc2ccc(Cl)cc2)c1C#N,"inconclusive [activator, single point]",
CC(C)CCN(C(=O)c1csnn1)C(C(=O)NC1CCCC1)c1ccccc1 (stereo not drawn),"inconclusive [activator, single point]",
COc1cccc(C(=O)Nc2c3c(nn2-c2ccc(Cl)cc2)CS(=O)(=O)C3)c1OC,,inactive: 0.129%
N#CCCN(C(=O)c1cc2c(s1)-c1ccccc1S(=O)(=O)C2)c1ccccc1,,inactive: 2.26%
Cc1ccc(NC(=O)C(C)Sc2nnc(C3CC3)n2C2CC2)cc1S(=O)(=O)N1CCOCC1 (stereo not drawn),"inconclusive [activator, single point]",
N/C(=N\OC(=O)N1c2ccccc2Sc2ccccc21)c1ccccc1,"inconclusive [activator, single point]",
CCCCC1=CC2=CC(=O)C(C)(OC(=O)CC)C(=O)C2=CN1Cc1ccccc1 (stereo not drawn),"inconclusive [activator, partial curve, poor fit]",
O=C(Nc1ccc2c(c1)OCCO2)c1ccc2nccnc2c1,active: 7.31 µM,
CC(=O)NC(CC(C)C)C(=O)NC(Cc1ccccc1)C(=O)CCl (stereo not drawn),active: 8.2 µM,
C[C@@H](NC(=O)/C(C#N)=C/c1ccc(O)c(O)c1)c1ccccc1,,inactive: -8.28%
CSc1nc2ccccc2cc1/C=C(\C#N)c1ccc(Cl)c(Cl)c1,active: 7.31 µM,
CCCCOc1ccc(CSCCNC(=S)Nc2ccccc2)cc1,"inconclusive [activator, single point]",
Cc1nn(-c2ccccc2)c(N2CCCC2)c1/C=N/O,"inconclusive [activator, partial curve]",
O=C(N/N=C/C=C/c1ccccc1[N+](=O)[O-])c1cccs1,"inconclusive [activator, single point]",
COc1cccc(Oc2ccc(C(F)(F)F)cc2NC(=O)CCc2nc3ccccc3c(=O)[nH]2)c1,"inconclusive [activator, single point]",
COc1ccc(OC)c(CNc2ccc3c(c2)CCC3)c1,"inconclusive [activator, single point]",
C=CCNC(=S)Nc1sc2c(c1C(=O)OCC)CC(C(C)C)OC2 (stereo not drawn),active: 11.6 µM,
O=C(Cn1cnc2ccccc2c1=O)NNC(=O)c1ccccc1,"inconclusive [activator, full curve, poor fit]",
O=C(O)c1ccc(N=C2SCC(=O)N2Cc2ccccc2)cc1,,inactive: 1.48%
COc1ccc(-c2csc(-c3cc4ccccc4oc3=N)n2)cc1,"inconclusive [activator, partial curve, poor fit]",

SMILES,Potency,"activity, positive = re-replication"
Cc1cccc(OC(=O)c2cccnc2)c1,"inconclusive [activator, single point]",
COC(=O)c1c(NC(=O)c2ccc(S(=O)(=O)N3CCOCC3)cc2)sc2c1CCN(C)C2,"inconclusive [activator, single point]",
CC(C)(C)c1nnc2sc(SCC(=O)N3CCCc4ccccc43)nn2c1=O,,inactive: -183% [at 0.0737 µM]
Cc1ccc(NC(=O)CSc2nnc(/N=C/N(C)C)s2)cc1,,inactive: 1.75%
CSc1nc(N(CCO)CCO)c2sc3nc(-c4ccco4)c4c(c3c2n1)CCC4,active: 14.6 µM,
CCCOc1ccc(C2NC(=O)CCC2[N+](=O)[O-])cc1 (stereo not drawn),"inconclusive [activator, partial curve, poor fit]",
COc1ccc(CNc2nc(-c3cccnc3)nn2C(=O)c2ccco2)cc1,"inconclusive [activator, single point]",
O=C(Oc1ccc2[nH]cc(CCN3C(=O)c4ccccc4C3=O)c2c1)c1ccco1,active: 11.6 µM,
CC(O)(CS(=O)(=O)Cc1cccc(C(F)(F)F)c1)C(=O)Nc1cccc(C(F)(F)F)c1 (stereo not drawn),"inconclusive [activator, partial curve]",
COc1ccc(C2NC(=O)NC(O)(C(F)(F)F)C2C(=O)c2ccccc2)cc1OC (stereo not drawn),"inconclusive [activator, single point]",
Cc1ccc(S(=O)(=O)N(CC(=O)N/N=C/c2cccc(Cl)c2)c2cccc3cccnc23)cc1,"inconclusive [activator, single point]",
Fc1cccc(Cl)c1Cn1nnc2c(NCc3ccncc3)ncnc21,"inconclusive [activator, partial curve]",
CN(CC(=O)Nc1ccc(Cl)c(C(F)(F)F)c1)C(=O)c1cccc2cccnc12,,inactive: -7.19%
Cc1ccc(NC2=C(Cl)C(=O)OC2OC(=O)c2ccccc2)c(C)c1 (stereo not drawn),"inconclusive [activator, single point]",
CCCCN1C(=O)c2cccc3cc(O)cc(c23)C1=O,"inconclusive [activator, full curve, poor fit]",
Cc1cc(C)c(NC(=O)CSc2nnc(CNC(=O)c3ccco3)o2)c(C)c1,,inactive: 0.473%
CC(C)c1ccc(OCc2nnc(SCC(=O)N3CCCCC3)o2)cc1,,inactive: -16.7%
COc1ccc([C@@]2(C(C)C)ON(c3ccccc3C(F)(F)F)C2=O)cc1,"inconclusive [activator, single point]",
CCOC(=O)Cn1cnc(C)c1,,inactive: -0.925%
Cc1cc(=O)oc2cc(OCC3CC(c4ccccc4Cl)=NO3)ccc12 (stereo not drawn),"inconclusive [activator, full curve, poor fit]",
CCn1c2ccccc2c(=O)c2ccccc21,active: 23.1 µM,
Fc1ccc(COc2ccc(-c3nnco3)cc2)c(Cl)c1,"inconclusive [activator, single point]",
CCc1cc2c(CN3CCN(Cc4ccccc4)CC3)cc(=O)oc2cc1O,"inconclusive [activator, single point]",

SMILES,Potency,"activity, positive = re-replication"
Cc1ccc(NC(=O)CN(C)C(=O)c2cccc(S(=O)(=O)N3CCc4ccccc43)c2)cc1,,inactive: 1.69%
COc1cc(/C=C/C(=O)O)cc(S(=O)(=O)N2CCN(S(=O)(=O)c3ccc(Cl)cc3)CC2)c1OC,"inconclusive [activator, single point]",
CC(=O)c1cccc(NC(=O)COC(=O)c2ccccc2C)c1,,inactive: -0.31%
N#Cc1c(NC(=O)CSc2nnc(-c3ccco3)n2-c2ccccc2)sc2c1CCC2,"inconclusive [activator, partial curve, poor fit]",
COCCn1c(CN2CCN(C(=O)c3ccco3)CC2)nc2c1c(=O)n(C)c(=O)n2C,,inactive: -2.58%
CCCc1nn(-c2cc(Cl)ccc2OC)c2c1C(=O)CC(C)(C)C2,"inconclusive [activator, partial curve, poor fit]",
C=CCn1c(SCc2cccc(F)c2)nc2cc(C(=O)N3CCC(C(N)=O)CC3)ccc2c1=O,"inconclusive [activator, single point]",
CCc1nnc(NC(=O)CSc2nc(C)cc(C)c2C#N)s1,"inconclusive [activator, single point]",
Cc1ccc2nc3nc(NCC4CCCO4)c(C(=O)NC4CCCC4)cc3c(=O)n2c1 (stereo not drawn),active: 2.59 µM,
COc1ccccc1-n1cc([C@@H]2C[C@H]3CN(c4ccccc4)C(=O)[C@]34CCCN24)cn1,active: 2.59 µM,
S=c1nc(C2CCCCC2)n(-c2ccccc2)[nH]1,"inconclusive [activator, partial curve]",
CCOC(=O)CN(C(=O)Cn1nnc2ccccc21)C(C(=O)NCCOC)c1ccccc1C (stereo not drawn),"inconclusive [activator, full curve, poor fit]",
COc1ccc(/C=C2\SC(=S)N(c3cccnc3)C2=O)cc1,,inactive: 24.3%
CCOc1ccc(/C=C2\C(=O)c3ccccc3OC2c2ccccc2)cc1 (stereo not drawn),active: 5.17 µM,
NC(=O)c1nsc(C(=O)N(c2cccc(F)c2)C(C(=O)NCC2CCCO2)c2c[nH]c3ccccc23)c1N (stereo not drawn),"inconclusive [activator, single point]",
Cc1ccc(Cl)cc1N1CCN(CC(=O)Nc2ccc(CN3CCCCC3)cc2)CC1,"inconclusive [activator, single point]",
O=C(c1ccc(COc2ccccc2Cl)o1)N1CCN(c2ccccc2)CC1,"inconclusive [activator, partial curve, poor fit]",
Cc1ccccc1Cn1ccc(NC(=O)c2cc3nc(-c4ccco4)cc(C(F)(F)F)n3n2)n1,active: 8.2 µM,
C/C(=N\NC(=O)c1cc(C)nc2ccccc12)c1ccco1,,inactive: 1.08%
COc1ccc(-c2cc(=O)oc3cc(OCC(=O)N(C)C)ccc23)cc1,"inconclusive [activator, single point]",
C/C(=N\Nc1cc(N2CCOCC2)ncn1)c1ccc(O)cc1,"inconclusive [activator, single point]",
O=C(N[C@H]1C/C=C\C[C@H](CC(=O)N(CCO)Cc2ccccc2)C(=O)NC[C@H](c2ccccc2)OC1=O)OCC1c2ccccc2-c2ccccc21,,inactive: 11.9%
